# Assay results taken from PMC4336329 (PLoS ONE, 2015).
# The campaign covered roughly 310,000 compounds. About 14,000 (4.5%) showed an effect of 50% or more. Effects have a minus sign here. The list shows a part of the results.
# Target: human ether-à-go-go-related gene (hERG) potassium channel (human, UniProt Q12809)
# Test: primary screen, population patch clamp on CHO cells stably expressing hERG
# 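Also: peak tail current of the secondary pulse compared with the same well before compound.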
# human ether-à-go-go-related gene (hERG) potassium channel, sequence (Q12809 whole entry, looked up): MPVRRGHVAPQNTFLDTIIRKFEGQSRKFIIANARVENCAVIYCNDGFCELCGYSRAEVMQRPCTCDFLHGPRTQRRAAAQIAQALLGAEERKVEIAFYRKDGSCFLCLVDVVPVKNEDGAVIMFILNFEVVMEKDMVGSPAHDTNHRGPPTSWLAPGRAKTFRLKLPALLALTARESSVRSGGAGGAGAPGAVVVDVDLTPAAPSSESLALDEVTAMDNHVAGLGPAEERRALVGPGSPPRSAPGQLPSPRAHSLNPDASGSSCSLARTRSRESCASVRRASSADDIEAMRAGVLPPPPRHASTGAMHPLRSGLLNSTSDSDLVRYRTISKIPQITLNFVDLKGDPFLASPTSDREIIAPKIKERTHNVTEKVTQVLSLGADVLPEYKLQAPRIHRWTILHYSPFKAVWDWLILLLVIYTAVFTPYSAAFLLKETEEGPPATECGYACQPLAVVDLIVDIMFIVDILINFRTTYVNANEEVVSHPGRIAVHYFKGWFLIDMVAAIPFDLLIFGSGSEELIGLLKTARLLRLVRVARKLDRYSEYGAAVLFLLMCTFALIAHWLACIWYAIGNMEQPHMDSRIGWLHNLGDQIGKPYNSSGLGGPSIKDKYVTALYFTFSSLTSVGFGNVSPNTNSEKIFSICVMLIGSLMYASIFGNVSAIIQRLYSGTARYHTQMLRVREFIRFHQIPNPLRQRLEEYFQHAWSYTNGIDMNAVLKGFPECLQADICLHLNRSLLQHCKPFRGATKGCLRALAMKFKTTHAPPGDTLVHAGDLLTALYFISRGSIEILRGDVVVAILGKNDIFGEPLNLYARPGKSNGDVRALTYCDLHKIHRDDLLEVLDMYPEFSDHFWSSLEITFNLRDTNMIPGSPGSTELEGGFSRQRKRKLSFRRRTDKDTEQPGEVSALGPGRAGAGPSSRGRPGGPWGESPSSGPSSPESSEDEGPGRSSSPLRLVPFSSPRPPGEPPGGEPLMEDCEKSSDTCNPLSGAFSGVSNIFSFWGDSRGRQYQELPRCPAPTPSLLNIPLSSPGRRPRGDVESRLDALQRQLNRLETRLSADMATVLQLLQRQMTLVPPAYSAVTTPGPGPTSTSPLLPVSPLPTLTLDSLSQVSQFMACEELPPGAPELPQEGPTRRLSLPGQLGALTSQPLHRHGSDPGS
row,Structure (SMILES),"hERG current change (%, negative = inhibition) at 10uM"
1,COC(=O)Nc1ccc(OCc2ccccc2)cc1,-2.46%
2,CCNS(=O)(=O)c1ccc(NC(=O)c2ccccc2SCCOC)cc1,1.07%
3,CC1CCCN(C(=O)CCl)C1 (centres unmarked),18.8%
4,O=C(CN1CCN(c2ccc(O)cc2)CC1)N1CCc2ccccc21,10.5%
5,CN(C)CCOCCSc1ccc(Cl)cc1.O=C(O)C(=O)O,-37.3%
6,COc1cccc(OC)c1C(=O)Nc1ccccc1C(=O)N1CCCC1,-0.733%
7,CN(CC(=O)Nc1cccc(F)c1)CC(=O)Nc1cccc(S(=O)(=O)N2CCCCCC2)c1,-18.9%
8,CC/C(=N\Nc1ccccc1)c1c(O)n(-c2ccccc2)c(=O)[nH]c1=O,6.39%
9,Nc1ccccc1Sc1ccc(C(=O)c2ccccc2C(=O)O)cc1[N+](=O)[O-],16.7%
10,Cc1ccccc1NC(=O)c1cc2ccccc2o1,5.93%
11,CCOC(=O)c1[nH]c2c(c1C)C(=O)CC(c1ccc(N(C)C)cc1)C2 (centres unmarked),-23.5%
12,COc1cc([N+](=O)[O-])cc(/C=N/NC(=O)c2ccc(C)nc2)c1O,20.5%
13,CCN(CC)CCNCc1ccc(Br)cc1OCC(=O)NCc1ccccc1.Cl,-67.2%
14,COc1ccc(-n2c(N)c(C(=O)NCc3cccnc3)sc2=S)cc1,9.81%
15,COc1cc(O)c(C(CCN2CCCC(C)C2)c2cc(OC)c(OC)c(OC)c2)c(OC)c1 (centres unmarked),5.07%
16,CCCCCn1c(=O)c(C(=O)Nc2cccc(C)c2)c(O)c2ccccc21,20.7%
17,O=C(O)c1ccc(-c2ccccn2)s1,-1.12%
18,CCOC(=O)CC1CCCCN1C(=O)CCCn1nnnc1CN1CCC(C)CC1 (centres unmarked),12.3%
19,CCOC(=O)c1sc(NC(=O)CSc2nccn2C)nc1C,-9.46%
20,Cc1ccc(Nc2cc(C)nn2-c2nc(C)cc(C)n2)cc1,6.03%
21,Cc1ccc(SCCC(=O)NC(C(C)C)C(C)C)cc1,-7.68%
22,Cc1ccc(CSC2=NCCN2C(=O)c2ccco2)cc1,-10.3%
23,COCCCNC(=O)c1c(-c2ccccc2)noc1C,14.5%

row,Structure (SMILES),"hERG current change (%, negative = inhibition) at 10uM"
1,O=C(Nc1ccc(F)cc1F)Nc1ccccc1C(=O)NCCN1CCNC1=O,12.6%
2,CCCCNS(=O)(=O)c1ccc(OC)c(Cl)c1Cl,-2.31%
3,CC(C)CN(C(=O)c1nn(C)c(=O)c2ccccc12)c1nc2ccccc2s1,-1.91%
4,CC(=O)[C@@H]1[C@@H]2C(=O)N(Cc3ccccc3)C(=O)[C@@H]2C2c3ccccc3C=CN21 (some centres unmarked),8.85%
5,Nc1ncncc1-c1ccc2ccccc2c1,-7.48%
6,Cc1ccc(N/C(CSC(N)=O)=N\S(=O)(=O)c2ccc(C)cc2)cc1,15.5%
7,CC(=O)OC1OCCOC1NC(=S)Nc1cccc(C(F)(F)F)c1 (centres unmarked),17.5%
8,NC(=O)CNC(=O)[C@@H]1CC2(CC(c3cccc([N+](=O)[O-])c3)=NO2)CN1C(=O)c1ccccc1 (some centres unmarked),7.77%
9,CS(=O)(=O)N(CC(=O)N1CCCCCC1)c1cccc(Cl)c1Cl,5.89%
10,O=C1NC2=C(CCc3ccccc32)C(c2ccccc2)N1 (centres unmarked),-20.8%
11,CC(=O)c1ccc(N2CCN(C(C)C(=O)NC3CCCc4ccccc43)CC2)cc1 (centres unmarked),-44.2%
12,CNC(=O)Nc1ccc(Cl)cc1,7.56%
13,Nc1nc(CN2CCCCCC2)nc(Nc2ccccc2)n1,-61.4%
14,Cc1ccccc1OCC(=O)NCCN1CCCC1.Cl,-3.02%
15,Cc1cc(NC(=O)CSc2nnc(C)o2)no1,11.8%
16,Cc1cccc(C(C)(C)C)c1OCCn1ccnc1,-11.1%
17,O=C(/C=C/c1ccco1)Oc1cccc2cccnc12,9.02%
18,C=CCn1c(O)c(C(C)=NC2CC2)c(=O)[nH]c1=O,9.27%
19,CC(=O)c1cc2cc(O)ccc2o1,5.74%
20,Nc1c(N(Cc2ccco2)C(=O)c2cccc(Cl)c2)c(=O)[nH]c(=O)n1Cc1ccccc1,5.99%
21,COc1ccc(Cc2nnc(NS(=O)(=O)c3ccc([N+](=O)[O-])cc3)s2)cc1,-0.0408%
22,COC(=O)c1cccc(NC(=O)Cc2ccccc2[N+](=O)[O-])c1C,-5.62%
23,COc1ccc(C2NC(=O)C(C#N)=C(S)N2c2ccc(C)cc2)cc1OC (centres unmarked),18.2%

row,Structure (SMILES),"hERG current change (%, negative = inhibition) at 10uM"
1,O=C(Nc1ncccn1)C1CCCN1S(=O)(=O)c1ccc(Cl)c(Cl)c1 (centres unmarked),-0.452%
2,O=C(Cc1ccccc1)N1CCN(Cc2ccc([N+](=O)[O-])cc2)CC1,-63.4%
3,CC(C(=O)OCC(=O)c1ccc([N+](=O)[O-])cc1)N1C(=O)C2C3C=CC(C3)C2C1=O (centres unmarked),-43%
4,CC(=O)Nc1nc(C=C(Cl)Cl)cs1,-7.74%
5,CN1CCN(S(=O)(=O)c2ccc(N3CCN(C(=O)c4ccccc4)CC3)nc2)CC1,36.5%
6,COc1ccc(CCNS(=O)(=O)c2ccc([N+](=O)[O-])cc2)cc1OC,-2.39%
7,CCC(C(=O)NCc1ccc(F)cc1)N(CCc1ccccc1)C(=O)c1snc(C(N)=O)c1N (centres unmarked),-40.7%
8,O=C(O)/C=C/C(=O)Nc1ccc(S(=O)(=O)Nc2nccs2)cc1,7.54%
9,Cc1ccc(C)c(OCCCCCn2ccnc2)c1,-36.4%
10,CCOC(=O)c1c(NC(=O)c2cccs2)sc2c1CCCC2,15.6%
11,Cn1c2ccccc2c2c(C(=O)NCC3CCCO3)cn(C3CCCC3)c(=O)c21 (centres unmarked),-0.664%
12,CCOC(=O)N1CCC(NC(=O)c2cc(S(=O)(=O)NCCc3ccccc3)ccc2F)CC1,-36%
13,O=C(NN1CCOCC1)c1sc2cccc(F)c2c1Cl,9.93%
14,CCC(=O)c1ccc(OCC(=O)OCC(=O)NC2CCCCCCC2)cc1,23.9%
15,CC(=O)c1cccc(NC(=O)COC(=O)c2ccccn2)c1,5.33%
16,COc1ccc(CN2CCN(c3ccccn3)CC2)cc1OCc1ccccc1,-67.9%
17,COCCNC(=O)CN(C(=O)CCC(=O)Nc1ccccn1)c1ccc(C)cc1C,-0.279%
18,OC1(c2cccnc2)CC2CCC(C1)N2Cc1nnnn1Cc1ccccc1 (centres unmarked),-8.96%
19,CC1CC(C)CN(C(=O)COC(=O)c2ccc3c(c2)C(=O)N(Cc2ccco2)C3=O)C1 (centres unmarked),-68.7%
20,COC(=O)C(C)(C)ONC(=O)Nc1ccc(C)cc1,-13.8%
21,CCC(=O)c1ccc(OCC(=O)O)c(OC)c1,9.77%
22,CC1=C(CCN2CCN(C(C)C)C(CCO)C2)C(C)(C)CCC1 (centres unmarked),-17.3%
23,CN(CC(=O)Nc1ccc(F)cc1)C(=O)COC(=O)C1CCN(c2ccc(C(F)(F)F)cn2)CC1,-65.5%

row,Structure (SMILES),"hERG current change (%, negative = inhibition) at 10uM"
1,COCCNc1nc2ccccc2nc1NS(=O)(=O)c1ccc(C)cc1C,-0.713%
2,CCCc1cc(C(=O)Nc2ccc(C)cc2)no1,-13.8%
3,COc1ccc(C2CC(=O)NC(=O)C2)cc1,18.3%
4,CCN=C1SC(C(=O)NCCc2ccccc2)CC(=O)N1CC (centres unmarked),6.74%
5,CCOC(=O)c1cccc(NC(=O)Nc2cc(OC)ccc2OC)c1,-14.3%
6,O=C1CC2(CCCCC2)Oc2ccccc21,14.4%
7,O=C(NC1CCCC1)C1CCN(C(=O)c2cc(Cl)ccc2Cl)CC1,-6.2%
8,Clc1ccc(-c2csc(Nc3cccnc3)n2)cc1,13.5%
9,COc1ccc(OC)c(C2C3=C(CCCC3=O)Nc3nnnn32)c1 (centres unmarked),2.21%
10,COC(=O)c1ccc(C2=NOC(C)(c3nnc(-c4cccc(Cl)c4)o3)C2)cc1 (centres unmarked),10.9%
11,O=C(c1ccc2c(c1)N(Cc1cccc(Cl)c1)C(=O)c1ccccc1S2(=O)=O)N1CCN(c2ccccn2)CC1,7.1%
12,CCn1c(O)c(C=NCCN2CCOCC2)c(=O)n(CC)c1=S,-3.21%
13,COc1ccc(C2NC(=O)N(C)C3=C2C(=O)CC(C)(C)C3)cc1OC (centres unmarked),15.1%
14,COC(=O)c1ccc(NC(=O)CSc2nccn2CCc2ccccc2)cc1,8.75%
15,CCc1cc(C(=O)N/N=C/c2c(C)[nH]c3ccccc23)cs1,-6.65%
16,CCN(CC)c1ccc(NC(=O)c2ccc(Br)o2)cc1,-24.3%
17,CN1CCN(S(=O)(=O)c2ccc(Cl)cc2)CC1,9.96%
18,COc1ccc(NC(=S)N(Cc2ccc(Cl)cc2)Cc2ccc(C(=O)O)cc2)cc1Cl,-3.51%
19,Cc1cc(=S)[nH]c2ccccc12,16.5%
20,CC(C)Sc1nnc([C@H](Cc2c[nH]c3ccccc23)NC(=O)OC(C)(C)C)o1,-22.4%
21,CN(C)C(CNC(=O)CCOc1ccccc1)c1ccco1 (centres unmarked),7.28%
22,CCOc1ccc(S(=O)(=O)NCCC(=O)OCC(=O)Nc2cc(C)on2)cc1,-44.1%
23,Cc1ccccc1NC(=O)Cn1nnc(S(=O)(=O)c2ccc(C(C)(C)C)cc2)c1N,4.35%
